Screen size: about 340,000 compounds; about 6,900 (2%) were called active. No stated cut-off is given here; in the data, active means inhibition above about 30%; inactive means below that, where a call was filed. This is a selection; strong and weak results do not stand in their true shares. Entries without a call were filed so in the source.

This passage reports inhibition results from PubChem BioAssay AID485344 (National Center for Advancing Translational Sciences (NCATS), 2010).

For this test, the target named is D(2) dopamine receptor (Homo sapiens) (UniProt P14416). In words: HTS Assay for Allosteric Antagonists of the Human D2 Dopamine Receptor: Primary Screen for Antagonists. Further: 0% is about no effect. To be noted: HEK293 TREx D2 cells, calcium flux, dopamine EC80; at 10 µM; stronger effect = higher value. The method, boiled down: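 Inhibition of EC80 dopamine-driven calcium flux, recorded kinetically, defines activity here; cells are a tetracycline-induced HEK293 T-REx line expressing force-coupled D2.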
Chain of UniProt P14416 (P14416 whole entry, looked up): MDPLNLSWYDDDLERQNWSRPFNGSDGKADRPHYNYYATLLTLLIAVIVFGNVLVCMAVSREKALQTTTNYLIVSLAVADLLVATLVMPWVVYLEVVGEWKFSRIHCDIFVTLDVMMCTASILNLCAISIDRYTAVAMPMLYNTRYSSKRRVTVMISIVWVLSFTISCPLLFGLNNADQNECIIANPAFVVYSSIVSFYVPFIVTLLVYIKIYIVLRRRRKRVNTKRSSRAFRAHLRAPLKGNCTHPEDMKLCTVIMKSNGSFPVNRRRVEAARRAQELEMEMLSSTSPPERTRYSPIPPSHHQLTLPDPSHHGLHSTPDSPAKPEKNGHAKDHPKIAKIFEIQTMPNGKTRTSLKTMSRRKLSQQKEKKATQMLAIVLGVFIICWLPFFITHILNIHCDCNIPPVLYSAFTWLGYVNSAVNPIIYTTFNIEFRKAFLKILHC
In the case of `CCc1ccc(-n2nc(C)c3c(C(=O)Nc4cc(C)ccc4C)cc(C)nc32)cc1`, the inhibition came out at 7.88%.

In the case of `CCOc1ccccc1CNC(=O)C1CCCN(S(=O)(=O)c2ccc3c(ccn3C)c2)C1` (configuration not stated), the inhibition was -13.6%.

Take `CC1CCN(S(=O)(=O)c2nnc(NC(=O)c3cccc(F)c3)s2)CC1`: the inhibition was -14%.

Take `COC(=O)c1sc2cccc(F)c2c1S(=O)(=O)N1CCN(c2ccc(C)cc2C)CC1`: the inhibition is -8.4%.

On to `COc1nc(-c2ccc(C)cc2)ccc1-c1noc(-c2ccc(C(C)(C)C)cc2)n1`, for which the inhibition is -8.91%.

On to `COc1ccc(CCNC(=O)C2CC(=O)N(C3CCCCCCC3)C2)cc1OC` (configuration not stated), for which the inhibition is active: 92.7%.

Consider `Cc1cccc(N2CCN(C(=O)c3ccc4c(c3)c(C)c(C)n4C)CC2C)c1` (configuration not stated), for which the inhibition was 3.22%.

`Cc1ccc(NC(=O)c2cc(S(=O)(=O)N3CCCC3)c[nH]2)c(C)c1`: the inhibition stood at 19.6%.

Consider `Cc1cncn1CCc1nc2c3ccccc3nc(SCC(=O)Nc3ccccc3F)n2n1`, for which the inhibition was -28.3%.

On to `Cc1ccc(-n2c(SCC(N)=O)nc3c([nH]c4ccccc43)c2=O)cc1`, for which the inhibition is -13.4%.

With `O=C(c1ccc(CS(=O)(=O)c2c(Cl)cccc2Cl)o1)N1CCN(c2ccccc2)CC1`, the inhibition worked out at 13.5%.

Turning to `CCC(C)NCCOc1cccc(Br)c1` (configuration not stated), the inhibition was active: 45%.

Turning to `Cc1ccc(Cl)cc1N1CCN(c2ncnc3onc(-c4ccc(F)cc4)c23)CC1`, the inhibition is -10.6%.

Take `Cc1ccc(Cn2c(C)c(CNC(C)c3ccccc3)c(C(=O)O)c2C)cc1` (configuration not stated): the inhibition stood at 6.75%.

Regarding `Cc1ccc(S(=O)(=O)Cc2nc(-c3ccc(C(=O)NCc4ccccc4F)cc3)oc2C)cc1`, the inhibition stood at 15.8%.

With `Cc1ccc(-c2nnc(Nc3cccc(C(F)(F)F)c3)c3ccccc23)cc1S(=O)(=O)N1CCOCC1`, the inhibition turned out to be 9.86%.

On to `CC(C)(C)c1ccc(-c2noc(CCC(=O)Nc3cccc(Cl)c3)n2)cc1`, for which the inhibition is -4.34%.

`Cc1ccc(O)c(C2=Nc3ccccc3N=C(c3cccc(F)c3)C2)c1`: the inhibition was 23.9%.

Take `O=C(Nc1ccc(C(=O)N2CCN(c3ccc(Cl)cc3)CC2)cc1)c1nsc2ccccc12`: the inhibition was -24.7%.

Consider `Cc1ccc2oc(-c3cc(NC(=O)c4cccs4)cc(C)c3O)nc2c1`, for which the inhibition was -14.5%.

`O=C(NC1CCN(Cc2ccccc2)CC1)C1CCN(S(=O)(=O)c2ccc(Cl)cc2)CC1`: the inhibition is active: 33.2%.

Turning to `COc1ccc(Br)cc1CNC(=O)C1COc2ccccc2C1` (configuration not stated), the inhibition stood at 5.69%.

Consider `CC(C)(C)C(=O)n1nc(-c2ccccc2)oc1=O`, for which the inhibition is active: 30.5%.

Take `COc1ccc(CNC(=O)CN2C(=O)COc3ccc(S(=O)(=O)N4CCOCC4)cc32)cc1`: the inhibition was 4.41%.

On to `CCc1ccccc1NC(=O)c1cc(-c2ccc3c(c2)OCO3)on1`, for which the inhibition is -11.6%.

`CCOCN(C(=O)Cn1cnc2cc(C)c(C)cc21)c1c(C)cccc1CC`: the inhibition was -7.83%.

Regarding `CC1CCCCN1C(=O)CSc1nnc(-c2ccccc2Cl)o1` (configuration not stated), the inhibition was 5.28%.

Consider `CCOc1ccc(N(CC)S(=O)(=O)N2CCCC(C(=O)NCCc3ccccc3OC)C2)cc1` (configuration not stated), for which the inhibition was 17.5%.

`COc1ccccc1CNC(=O)Cn1c(=O)ccc2cc(S(=O)(=O)N3CCCC3)ccc21`: the inhibition was -2.8%.

Regarding `COc1ccc(-c2cn3nc(N4CCC(C(=O)Nc5ccc(C)cc5)CC4)sc3n2)cc1`, the inhibition was 5.87%.

For `CCOc1ccccc1N(CC(=O)Nc1ccc(OC)c(Cl)c1)S(=O)(=O)c1ccccc1`, the inhibition came to 1.78%.

Consider `Cc1ccc2oc3c(c(=O)c2c1)C(c1ccc(OCC(N)=O)cc1)N(Cc1ccc2c(c1)OCO2)C3=O` (configuration not stated), for which the inhibition stood at 8.25%.

For `CNC(=O)CSc1nnc(NC(=O)Nc2ccccc2)s1`, the inhibition was 8.09%.

As for `COc1ccc(NC(=O)C(=O)NCC2(c3ccccc3)CCCC2)c(OC)c1`, the inhibition was -16.8%.

As to `COc1ccc(C(=O)NCC(c2ccc3c(c2)OCO3)N2CCN(c3ccc(F)cc3)CC2)cc1` (configuration not stated), the inhibition was determined as 8.83%.

Regarding `Cc1ccc(N(CC(C)C)S(=O)(=O)c2nnc(NC(=O)c3cccs3)s2)cc1`, the inhibition stood at 11%.

On to `Fc1ccc(Nc2nc(Nc3ccc(F)cc3)nc(N3CCOCC3)n2)cc1`, for which the inhibition was determined as 6.05%.

Turning to `CCCCn1c(SCC(=O)Nc2ccc(F)cc2)nc2c(sc3ccccc32)c1=O`, the inhibition is -20.4%.

Take `CC(C)c1ccc(NC(=O)Cn2nnc(C(=O)NCc3cccs3)c2N)cc1`: the inhibition was -2.95%.

For the molecule `Cc1ccc2nc(SCC(=O)Nc3ccc(C#N)cc3)[nH]c2c1`, the inhibition was -1.8%.

Consider `Cc1ccn2c(Nc3ccc4c(c3)OCCO4)c(-c3ccc(C)s3)nc2c1`, for which the inhibition is -6.59%.

For the molecule `O=C(COC(=O)CCNS(=O)(=O)c1ccccc1)Nc1ccc(OC(F)F)cc1`, the inhibition was active: 49.9%.

Consider `Cc1c(C(=O)N2CCC(C)CC2)c(S(=O)(=O)N2CCN(c3cccc(Cl)c3)CC2)c(C)n1C`, for which the inhibition was 0.994%.

In the case of `COc1ccc(OC)c(NC(=O)CCc2nc(-c3ccc(C)cc3)no2)c1`, the inhibition was 5.82%.

In the case of `CN1C(=O)c2[nH]nc(-c3ccc(F)cc3)c2C1c1ccccn1` (configuration not stated), the inhibition stood at 12.8%.

Turning to `COc1ccc(S(=O)(=O)c2cn(Cc3ccccc3)c3cc(F)c(F)cc3c2=O)cc1`, the inhibition is -6.68%.

As for `Clc1ccccc1CN1CCN(CCCc2ccccc2)CC1`, the inhibition is active: 65.4%.

`O=c1c(S(=O)(=O)c2ccc(Cl)cc2)cn(Cc2ccc(F)cc2)c2ccc(F)cc12`: the inhibition is -1.95%.

With `CC(C)CCN(Cc1ccco1)C(=O)Cn1ncc2c([nH]c3ccccc32)c1=O`, the inhibition was -7.43%.

In the case of `COc1ccccc1NC(=O)c1cc(C2CC2)nc2c1c(C)nn2-c1ccc(C)cc1`, the inhibition is 2.28%.

Regarding `O=c1c(N2CCc3ccccc3C2)csc2ccc(Br)cc12`, the inhibition is -11.2%.

For the molecule `Cc1cc(C)n(C(=O)CNc2ccccc2Cl)n1`, the inhibition was active: 32.2%.

On to `COc1ccccc1Cc1nc2ccccc2nc1SCC(=O)N1CCC(C)CC1`, for which the inhibition amounted to 16.9%.

Turning to `CCOC(=O)c1cc(-c2ccccc2)n(CCCC(=O)Nc2cc(C)ccc2OC)c1C`, the inhibition was -0.389%.

Consider `Cc1cccc(C(=O)Nc2ccc(N3CCN(c4ccc(F)cc4)CC3)c(C(=O)O)c2)c1`, for which the inhibition is -14.9%.

As to `Cc1cccc(N2CCN(c3c4c(nc5nncn35)CCC4)CC2)c1C`, the inhibition turned out to be 2.96%.

With `C=Cc1ccc(Cn2c(=O)cc(C)c3c(C)nn(C)c32)cc1`, the inhibition came to 0.154%.

With `COc1cc(-c2nnc(SCC(=O)Oc3ccccc3Cl)o2)cc(OC)c1OC`, the inhibition is -13.9%.

As for `COc1ccc(S(=O)(=O)c2cn(Cc3ccccc3)c3ccc(OC)cc3c2=O)cc1`, the inhibition worked out at 26.2%.

`CN(C)c1ccc(C(CNS(=O)(=O)c2ccc(F)cc2)N2CCc3ccccc32)cc1` (configuration not stated): the inhibition turned out to be 6.69%.

In the case of `COc1ccccc1NC(=O)c1cc(S(=O)(=O)N2CCc3ccccc32)ccc1F`, the inhibition amounted to 27.1%.

With `COc1ccc(NC(=O)c2cc3c(=O)n(Cc4cccnc4)ccc3nc2C)cc1Cl`, the inhibition was -11.8%.

In the case of `Cc1oc(-c2cccc(Cl)c2)nc1CN1CCC(C(=O)NCCc2ccc(Cl)cc2)CC1`, the inhibition was 7.21%.

Turning to `COc1cccc(OCC(=O)Nc2nnc3n2CCS3)c1`, the inhibition was determined as 11.4%.

On to `CCc1ccc(C2=C(C)C(N3CCC(C(=O)NCCc4ccco4)CC3)=NS2(=O)=O)cc1`, for which the inhibition is 8.72%.

For the molecule `COc1ccc(C(=O)Nc2ccc(N3CCOCC3)c(C(F)(F)F)c2)cc1OC`, the inhibition was -4.4%.

Turning to `Cc1nn(C)c(C)c1NC(=S)Nc1ccc(S(=O)(=O)Nc2ncccn2)cc1`, the inhibition was active: 30.5%.

Regarding `Cc1cccc(NC(=O)CSc2nc(=O)n(Cc3cccnc3)c3c2CCC3)c1C`, the inhibition was -22.6%.

As for `CCc1ccc(CNC(=O)CN2C(=O)CCn3nc(-c4cn(C)c5ccccc45)cc32)cc1`, the inhibition was found to be 6.62%.

In the case of `COc1ccccc1-c1nnc(SCC(=O)c2ccc(F)cc2)n1-c1ccccc1`, the inhibition is 3.18%.

On to `Cn1nnnc1SCCNCc1ccc(OCc2ccc(Cl)cc2)cc1`, for which the inhibition is -18.9%.

Consider `O=C(Nc1cccc(Cl)c1)C1CCCN1S(=O)(=O)c1cccc2cccnc12` (configuration not stated), for which the inhibition is -5.73%.

For `Cc1ccc(CN2C(=O)c3ccccc3Sc3ccc(C(=O)NCCCN4CCOCC4)cc32)cc1`, the inhibition was -9.33%.

As for `Cc1cc(Cl)ccc1OCc1cc(=O)n2c3c(sc2n1)CCCC3`, the inhibition was -0.183%.

Turning to `CCC(=O)N1CCc2cc(CNC(=O)Nc3cc(Cl)ccc3C(=O)OC)ccc21`, the inhibition stood at 4.98%.

As to `COc1ccc(N2CCN(C(=O)COC(=O)c3cccc(S(=O)(=O)Nc4cccc(C)c4)c3)CC2)cc1`, the inhibition is active: 40.2%.

For the molecule `CCc1cccc(NC(=O)C(CC(C)C)NS(=O)(=O)c2ccc3c(c2)oc(=O)n3C)c1` (configuration not stated), the inhibition worked out at 24.4%.

Regarding `COc1ccccc1CN1CCC(CNC(=O)c2cnn(-c3ccc(C)c(C)c3)c2C2CCN(C(=O)OC(C)(C)C)CC2)CC1`, the inhibition was -11.4%.

As for `CCCN(CCC)CCNC(=O)c1cc(-c2ccc(Br)s2)nc2ccccc12`, the inhibition was determined as 1.99%.

Consider `Brc1ccc2nc(-c3ccccc3)c(Nc3ccc4c(c3)OCO4)n2c1`, for which the inhibition came to 5.42%.

Take `CCc1noc(-c2ccc(N3CCCCC3)c([N+](=O)[O-])c2)n1`: the inhibition is 18.4%.

Consider `Cc1cc(OCC(=O)NCC2(N3CCOCC3)CCCCC2)ccc1Cl`, for which the inhibition is 10.1%.

Take `Cc1cccc(N2CCN(C(c3ccccc3)c3nnc(-c4ccccc4Cl)o3)CC2)c1C` (configuration not stated): the inhibition was found to be 6.81%.

Take `Fc1ccccc1N1CCN(c2ncc3c(n2)CCN(Cc2cc(Br)cs2)C3)CC1`: the inhibition is -3.68%.

As for `CCOc1ccccc1NC(=O)C(c1ccccc1)N1Cc2ccccc2C1=O` (configuration not stated), the inhibition was -7.99%.

As to `Cn1nnc2c(N3CCN(c4cccc(C(F)(F)F)c4)CC3)ncnc21`, the inhibition was -23.8%.

Regarding `COc1ccc(OC)c(CNC(=O)CN2CC(C)Sc3ccccc32)c1` (configuration not stated), the inhibition is -2.97%.

`O=C(Nc1cccc(F)c1F)C1CCN(c2ncccn2)CC1`: the inhibition was found to be 5.92%.

Regarding `CCSc1nn(CC(=O)Nc2ccc(C(=O)OC)cc2)c(N)c1S(=O)(=O)c1ccc(C)cc1`, the inhibition was found to be 4.59%.

As for `COC(=O)c1cc2occc2n1CC(=O)Nc1ccc(C(C)C)cc1`, the inhibition was -8.39%.

For `O=C(Nc1ccc(F)cc1)N1CCN(C(=O)c2nsc3ccccc23)CC1`, the inhibition is -2.66%.

For the molecule `COc1cccc(-n2nnc(-c3nc(-c4ccccc4F)no3)c2C)c1`, the inhibition is -6.7%.

Turning to `COC(=O)c1cc(NC(=O)c2ccc3c(c2)NC(=O)c2ccccc2S3)cc(C(=O)OC)c1`, the inhibition is 13.1%.

In the case of `COc1ccc(-c2nc3c(c(SCC(=O)N4CCCCC4)n2)Cc2c(CO)cnc(C)c2O3)cc1`, the inhibition was determined as 3.91%.

With `CSc1cccc(NC(=O)Cn2ncn3c(cc4ccccc43)c2=O)c1`, the inhibition was -3.25%.

As for `O=C(NC1CCN(Cc2ccccc2)CC1)c1cncc(Br)c1`, the inhibition was active: 84.6%.

Consider `O=C1COc2ccc(-c3cc(-c4ccccc4)c4c(n3)-c3cc(Cl)ccc3OC4)cc2N1`, for which the inhibition was -0.0482%.
